Test results reported in the supplement of paper PMC8728848.
This is one part of the list.

How the values were obtained:
Test in all cases: glycan array binding signal (z-score within array); higher = stronger binding
Settings in all cases: glycan notation: IUPAC condensed, linker removed
[1] = target: Fuc(a1-2)Gal(b1-4)GlcNAc(b1-3)Gal(b1-4)GlcNAc(b1-2)Man(a1-3)[Fuc(a1-2)Gal(b1-4)GlcNAc(b1-3)Gal(b1-4)GlcNAc(b1-2)Man(a1-6)]Man(b1-4)GlcNAc(b1-4)GlcNAc
Method in brief: (§1)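 Glycan array data were curated from 3228 arrays in the Consortium for Functional Glycomics database and kept only where the protein sequence was available. Glycan names were converted to IUPAC-condensed notation, and columns mapping to the same glycan were averaged. The binding signal is a within-array Z-score, averaged across arrays of the same protein sequence at different concentrations or buffers and across linkers. Negative Z-scores can be read as non-binding.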

[2] = target: Fuc(a1-2)Gal(b1-4)GlcNAc(b1-3)Gal(b1-4)GlcNAc(b1-3)Gal(b1-4)GlcNAc
Method in brief: as §1

[3] = target: Fuc(a1-2)Gal(b1-4)GlcNAc(b1-3)GalNAc
Method in brief: as §1

[4] = target: Fuc(a1-2)Gal(b1-4)GlcNAc(b1-3)[Fuc(a1-2)Gal(b1-4)GlcNAc(b1-6)]GalNAc
Method in brief: as §1

[5] = target: Fuc(a1-2)Gal(b1-4)GlcNAc(b1-3)[Fuc(a1-3)[Gal(b1-4)]GlcNAc(b1-6)]Gal(b1-4)Glc
Method in brief: as §1

[6] = target: Fuc(a1-2)Gal(b1-4)GlcNAc(b1-6)GalNAc
Method in brief: as §1

[7] = target: Fuc(a1-2)Gal(b1-4)GlcNAc6S
Method in brief: as §1

[8] = target: Fuc(a1-2)Gal(b1-4)[Fuc(a1-3)]GlcNAc
Method in brief: as §1

[9] = target: Fuc(a1-2)Gal(b1-4)[Fuc(a1-3)]GlcNAc(b1-2)Man(a1-3)[Fuc(a1-2)Gal(b1-4)[Fuc(a1-3)]GlcNAc(b1-2)Man(a1-6)]Man(b1-4)GlcNAc(b1-4)[Fuc(a1-6)]GlcNAc
Method in brief: as §1

[10] = target: Fuc(a1-2)Gal(b1-4)[Fuc(a1-3)]GlcNAc(b1-2)[Fuc(a1-2)Gal(b1-4)[Fuc(a1-3)]GlcNAc(b1-4)]Man(a1-3)[Fuc(a1-2)Gal(b1-4)[Fuc(a1-3)]GlcNAc(b1-2)Man(a1-6)]Man(b1-4)GlcNAc(b1-4)GlcNAc
Method in brief: as §1

[11] = target: Fuc(a1-2)Gal(b1-4)[Fuc(a1-3)]GlcNAc(b1-3)Gal(b1-4)[Fuc(a1-3)]GlcNAc
Method in brief: as §1

[12] = target: Fuc(a1-2)Gal(b1-4)[Fuc(a1-3)]GlcNAc(b1-3)Gal(b1-4)[Fuc(a1-3)]GlcNAc(b1-3)Gal(b1-4)[Fuc(a1-3)]GlcNAc
Method in brief: as §1

[13] = target: Fuc(a1-2)Gal(b1-4)[Fuc(a1-3)]GlcNAc(b1-3)GalNAc
Method in brief: as §1

[14] = target: Fuc(a1-2)Gal(b1-4)[Fuc(a1-3)]GlcNAc(b1-3)[Neu5Ac(a2-6)Gal(b1-4)GlcNAc(b1-6)]Gal(b1-4)Glc
Method in brief: as §1

[15] = target: Fuc(a1-2)Gal3S(b1-4)GlcNAc
Method in brief: as §1

[16] = target: Fuc(a1-2)Gal6S(b1-3)GlcNAc
Method in brief: as §1

[17] = target: Fuc(a1-2)Gal6S(b1-3)GlcNAc6S
Method in brief: as §1

Fuc(a1-2)Gal6S(b1-4)Glc = target: Fuc(a1-2)Gal6S(b1-4)Glc
Method in brief: as §1

[18] = target: Fuc(a1-2)Gal6S(b1-4)Glc6S
Method in brief: as §1

Fuc(a1-2)[Gal(a1-3)]Gal = target: Fuc(a1-2)[Gal(a1-3)]Gal
Method in brief: as §1

[19] = target: Fuc(a1-2)[Gal(a1-3)]Gal(b1-3)GalNAc
Method in brief: as §1

[20] = target: Fuc(a1-2)[Gal(a1-3)]Gal(b1-3)GalNAc(b1-3)Gal(a1-4)Gal(b1-4)Glc
Method in brief: as §1

[21] = target: Fuc(a1-2)[Gal(a1-3)]Gal(b1-3)GlcNAc
Method in brief: as §1

[22] = target: Fuc(a1-2)[Gal(a1-3)]Gal(b1-3)GlcNAc(b1-2)Man(a1-3)[Fuc(a1-2)[Gal(a1-3)]Gal(b1-3)GlcNAc(b1-2)Man(a1-6)]Man(b1-4)GlcNAc(b1-4)GlcNAc
Method in brief: as §1

[23] = target: Fuc(a1-2)[Gal(a1-3)]Gal(b1-3)GlcNAc(b1-2)Man(a1-3)[Fuc(a1-2)[Gal(a1-3)]Gal(b1-3)GlcNAc(b1-2)Man(a1-6)]Man(b1-4)GlcNAc(b1-4)[Fuc(a1-6)]GlcNAc
Method in brief: as §1

[24] = target: Fuc(a1-2)[Gal(a1-3)]Gal(b1-3)GlcNAc(b1-3)GalNAc
Method in brief: as §1

[25] = target: Fuc(a1-2)[Gal(a1-3)]Gal(b1-3)GlcNAc(b1-6)GalNAc
Method in brief: as §1

[26] = target: Fuc(a1-2)[Gal(a1-3)]Gal(b1-4)Glc
Method in brief: as §1

[27] = target: Fuc(a1-2)[Gal(a1-3)]Gal(b1-4)GlcNAc
Method in brief: as §1

[28] = target: Fuc(a1-2)[Gal(a1-3)]Gal(b1-4)GlcNAc(b1-2)Man
Method in brief: as §1

[29] = target: Fuc(a1-2)[Gal(a1-3)]Gal(b1-4)GlcNAc(b1-2)Man(a1-3)[Fuc(a1-2)[Gal(a1-3)]Gal(b1-4)GlcNAc(b1-2)Man(a1-6)]Man(b1-4)GlcNAc(b1-4)GlcNAc
Method in brief: as §1

[30] = target: Fuc(a1-2)[Gal(a1-3)]Gal(b1-4)GlcNAc(b1-2)Man(a1-3)[Fuc(a1-2)[Gal(a1-3)]Gal(b1-4)GlcNAc(b1-2)Man(a1-6)]Man(b1-4)GlcNAc(b1-4)[Fuc(a1-6)]GlcNAc
Method in brief: as §1

[31] = target: Fuc(a1-2)[Gal(a1-3)]Gal(b1-4)GlcNAc(b1-3)GalNAc
Method in brief: as §1

[32] = target: Fuc(a1-2)[Gal(a1-3)]Gal(b1-4)GlcNAc(b1-3)[Fuc(a1-2)[Gal(a1-3)]Gal(b1-4)GlcNAc(b1-6)]GalNAc
Method in brief: as §1

[33] = target: Fuc(a1-2)[Gal(a1-3)]Gal(b1-4)GlcNAc(b1-6)GalNAc
Method in brief: as §1

[34] = target: Fuc(a1-2)[Gal(a1-3)]Gal(b1-4)[Fuc(a1-3)]Glc
Method in brief: as §1

[35] = target: Fuc(a1-2)[Gal(a1-3)]Gal(b1-4)[Fuc(a1-3)]GlcNAc
Method in brief: as §1

B1: Epa23 (Candida glabrata) (protein)
chain: MGSSHHHHHHSSGLVPRGSHMIPNPFEGTINNFPSGCSPNHGLYNRGLTMELYNYSYIHPQSIQSYFNTSTLKKMEKGQCWDPSYLDVNYPRTGYKTHNRFAKVNGIDGILDFEFNPTRSCVPSKGQLPQNYNYPLQFTLSNFTMLLYGYFKPKVTAKHTFTIFADDLLFLNFGAGNAFDCCQQQDTIDDFGNYQAYALWGSDTQQNTLTVNLDANIYYPIRMFYNNRDFKGALNMYFTTDESNTKINDFSGYLFNIPDSSEGCPAHISYETECGNVSG
glycan array binding signal (z-score) [1]: -0.226
glycan array binding signal (z-score) [2]: -0.283
glycan array binding signal (z-score) [3]: -0.207
glycan array binding signal (z-score) [4]: -0.14
glycan array binding signal (z-score) [5]: -0.178
glycan array binding signal (z-score) [6]: -0.222
glycan array binding signal (z-score) [7]: -0.169
glycan array binding signal (z-score) [8]: -0.251
glycan array binding signal (z-score) [9]: -0.119
glycan array binding signal (z-score) [10]: -0.161
glycan array binding signal (z-score) [11]: -0.188
glycan array binding signal (z-score) [12]: -0.161
glycan array binding signal (z-score) [13]: -0.202
glycan array binding signal (z-score) [14]: -0.221
glycan array binding signal (z-score) [15]: 0.334
glycan array binding signal (z-score) [16]: -0.255
glycan array binding signal (z-score) [17]: -0.167
glycan array binding signal (z-score) (Fuc(a1-2)Gal6S(b1-4)Glc): -0.135
glycan array binding signal (z-score) [18]: -0.134
glycan array binding signal (z-score) (Fuc(a1-2)[Gal(a1-3)]Gal): -0.234
glycan array binding signal (z-score) [19]: -0.19
glycan array binding signal (z-score) [20]: -0.242
glycan array binding signal (z-score) [21]: -0.176
glycan array binding signal (z-score) [22]: -0.199
glycan array binding signal (z-score) [23]: -0.211
glycan array binding signal (z-score) [24]: -0.247
glycan array binding signal (z-score) [25]: -0.225
glycan array binding signal (z-score) [26]: -0.204
glycan array binding signal (z-score) [27]: -0.198
glycan array binding signal (z-score) [28]: -0.173
glycan array binding signal (z-score) [29]: -0.173
glycan array binding signal (z-score) [30]: -0.205
glycan array binding signal (z-score) [31]: -0.213
glycan array binding signal (z-score) [32]: -0.134
glycan array binding signal (z-score) [33]: -0.247
glycan array binding signal (z-score) [34]: -0.259
glycan array binding signal (z-score) [35]: -0.159
